Assay results taken from article PMC9911399.
The other results are listed elsewhere or left out.

molecular target: T1, RBFOX1 RRM (Homo sapiens) (UniProt Q9NWB1); assay: EMSA; details: HiTS-Eq, 1 nM pool, 10 min; buffer printed only for the single-RNA assays: 10 mM Tris pH 7.5, 150 mM NaCl, 3.4 mM EDTA, 0.001% NP-40, 30 C
T1 sequence: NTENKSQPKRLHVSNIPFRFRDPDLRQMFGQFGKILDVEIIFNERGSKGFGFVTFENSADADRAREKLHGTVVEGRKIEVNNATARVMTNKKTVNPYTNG

**Q.** With “GGGAGACCGGAAUUCAGAUUGUCCCCCACACUUAAAUCCCGUCGUAGCCACCA / CAATCTGAATTCCGGTCTCCC / TGGTGGCTACGACGGGATT” as the sequence, how does the binding signal (KA relative to UGCAUGU) read?
**A.** Its binding signal (KA relative to UGCAUGU) is 0.00801.

**Q.** For “GGGAGACCGGAAUUCAGAUUGUCCGGUCCGAUUAAAUCCCGUCGUAGCCACCA / CAATCTGAATTCCGGTCTCCC / TGGTGGCTACGACGGGATT”, which binding signal (KA relative to UGCAUGU) is on record?
**A.** The binding signal (KA relative to UGCAUGU) was 0.00302.

**Q.** Which binding signal (KA relative to UGCAUGU) does the source give for “GGGAGACCGGAAUUCAGAUUGUCCCCCACAUUUAAAUCCCGUCGUAGCCACCA / CAATCTGAATTCCGGTCTCCC / TGGTGGCTACGACGGGATT” here?
**A.** Its binding signal (KA relative to UGCAUGU) is 0.00553.

**Q.** How did the binding signal (KA relative to UGCAUGU) turn out when “GGGAGACCGGAAUUCAGAUUGUCCCCGGUCCUUAAAUCCCGUCGUAGCCACCA / CAATCTGAATTCCGGTCTCCC / TGGTGGCTACGACGGGATT” was run?
**A.** The binding signal (KA relative to UGCAUGU) was 0.0299.

**Q.** Which binding signal (KA relative to UGCAUGU) does the source give for “GGGAGACCGGAAUUCAGAUUGUCCGGCCCCUUUAAAUCCCGUCGUAGCCACCA / CAATCTGAATTCCGGTCTCCC / TGGTGGCTACGACGGGATT” here?
**A.** Its binding signal (KA relative to UGCAUGU) is 0.0187.

**Q.** How did the binding signal (KA relative to UGCAUGU) turn out when “GGGAGACCGGAAUUCAGAUUGUCCCCCACCUUUAAAUCCCGUCGUAGCCACCA / CAATCTGAATTCCGGTCTCCC / TGGTGGCTACGACGGGATT” was run?
**A.** The binding signal (KA relative to UGCAUGU) was 0.00332.

**Q.** How did the binding signal (KA relative to UGCAUGU) turn out when “GGGAGACCGGAAUUCAGAUUGUCCUCCCUCCUUAAAUCCCGUCGUAGCCACCA / CAATCTGAATTCCGGTCTCCC / TGGTGGCTACGACGGGATT” was run?
**A.** The binding signal (KA relative to UGCAUGU) was 0.000662.

**Q.** With “GGGAGACCGGAAUUCAGAUUGUCCGGCUCCGUUAAAUCCCGUCGUAGCCACCA / CAATCTGAATTCCGGTCTCCC / TGGTGGCTACGACGGGATT” as the sequence, how does the binding signal (KA relative to UGCAUGU) read?
**A.** Its binding signal (KA relative to UGCAUGU) is 0.038.

**Q.** With “GGGAGACCGGAAUUCAGAUUGUCCCUCCCCAUUAAAUCCCGUCGUAGCCACCA / CAATCTGAATTCCGGTCTCCC / TGGTGGCTACGACGGGATT” as the sequence, how does the binding signal (KA relative to UGCAUGU) read?
**A.** The binding signal (KA relative to UGCAUGU) was 0.00712.

**Q.** How did the binding signal (KA relative to UGCAUGU) turn out when “GGGAGACCGGAAUUCAGAUUGUCCCCCCCUGUUAAAUCCCGUCGUAGCCACCA / CAATCTGAATTCCGGTCTCCC / TGGTGGCTACGACGGGATT” was run?
**A.** Its binding signal (KA relative to UGCAUGU) is 0.0041.

**Q.** With “GGGAGACCGGAAUUCAGAUUGUCCUCCCAACUUAAAUCCCGUCGUAGCCACCA / CAATCTGAATTCCGGTCTCCC / TGGTGGCTACGACGGGATT” as the sequence, how does the binding signal (KA relative to UGCAUGU) read?
**A.** The binding signal (KA relative to UGCAUGU) was 0.0025.

**Q.** How did the binding signal (KA relative to UGCAUGU) turn out when “GGGAGACCGGAAUUCAGAUUGUCCCCCGCCAUUAAAUCCCGUCGUAGCCACCA / CAATCTGAATTCCGGTCTCCC / TGGTGGCTACGACGGGATT” was run?
**A.** Its binding signal (KA relative to UGCAUGU) is 0.00676.

**Q.** With “GGGAGACCGGAAUUCAGAUUGUCCGGGUCUCUUAAAUCCCGUCGUAGCCACCA / CAATCTGAATTCCGGTCTCCC / TGGTGGCTACGACGGGATT” as the sequence, how does the binding signal (KA relative to UGCAUGU) read?
**A.** Its binding signal (KA relative to UGCAUGU) is 0.0231.

**Q.** With “GGGAGACCGGAAUUCAGAUUGUCCGGUCACCUUAAAUCCCGUCGUAGCCACCA / CAATCTGAATTCCGGTCTCCC / TGGTGGCTACGACGGGATT” as the sequence, how does the binding signal (KA relative to UGCAUGU) read?
**A.** The binding signal (KA relative to UGCAUGU) was 0.0121.

**Q.** With “GGGAGACCGGAAUUCAGAUUGUCCGGUCCAGUUAAAUCCCGUCGUAGCCACCA / CAATCTGAATTCCGGTCTCCC / TGGTGGCTACGACGGGATT” as the sequence, how does the binding signal (KA relative to UGCAUGU) read?
**A.** Its binding signal (KA relative to UGCAUGU) is 0.00709.
